Measurements reported in ChEMBL document CHEMBL4888484, “Replenishing the malaria drug discovery pipeline: Screening and hit evaluation of the MMV Hit Generation Library 1 (HGL1) against asexual blood stage Plasmodium falciparum ,using a nano luciferase reporter read-out” (2022).
Hit rate of the full screen: of about 150,000 compounds, about 540 (0.36%) showed an effect of 50% or more. The list shows a part of the results.

system: Plasmodium falciparum; assay: Primary screen in NF54 nanoGlo assay, in single point, at 2uM, 72h; a lower Z score goes with more inhibition; type: functional, Erythrocyte; settings: timepoint 72 hour

Compound	% Inhibition [%]	Z score
CC1=C(CCN2CCC[C@H](C(N)=O)C2)C(C)(C)CCC1	1	-0.12
Cc1ccnc(Nc2cc(NCCNS(C)(=O)=O)nc(C)n2)c1	-5	0.95
CC(C)c1nc(CCN(C)C(=O)NCC2CCCCC2)no1	-8	1.09
O=C(NC[C@H]1CCCO1)c1nc(CCS(=O)(=O)c2ccc(Cl)cc2)no1	-8	1.09
O=C(NCC1(Br)CC1)Nc1ccncc1	-2	0.23
CCN(CC)C(=O)N1CCn2nnc(CCC(=O)N3CCOCC3)c2C1	-3	0.61
Cn1c(CN2CCCCC[C@H]2C2CCCCC2)nnc1C1CC1	-2	0.19
N#Cc1cccc(C(=O)N2CCC3(CC2)C[C@@H](Cc2cccc(F)c2)CCO3)c1	1	-0.12
O=C(Nc1nc2c(s1)CN(S(=O)(=O)c1ccccc1)CC2)c1cccs1	-4	0.4
C[C@H](NCCN(C)C1CCCCC1)c1cccnc1	-9	0.9
Cc1ccccc1-c1noc(-c2cccnc2NCCc2ccccc2)n1	2	-0.36
CN1CC2(C[C@H]1C(=O)NCCc1cccnc1)CN(Cc1ccccc1)C2	-15	1.77
CC1CN(C(=O)OC(C)(C)C)CC(C)N1C(=O)C1COCCO1 (configuration not stated)	1	-0.1
Cn1ccc(CN2CCC(COc3cc(C4CC4)ncn3)CC2)cc1=O	-20	2.22
NC(=O)c1cccc(Oc2ncnc3ccsc23)c1	-4	0.47
Cn1ccnc1CN(Cc1cccnc1)C1CCCCCC1	2	-0.44
O=C(Nc1cccc(F)c1)c1nn(-c2ccc(F)cc2)c2ccccc2c1=O	-7	0.85
N#Cc1cccnc1NCCc1ccc(S(N)(=O)=O)s1	0	-0.06
Cc1ccc([C@H]2CN(C3CCOCC3)C[C@@H]2N)o1	-16	2.51
O=C1CCCN1c1ccccc1N(Cc1ccc(-n2cccn2)cc1)Cc1ccc(-n2cccn2)cc1	0	0.03
O=C(CNc1cccc(OCc2ccc(F)cc2)c1)NC1CC1	12	-1.12
O=C(Nc1ccc(N2CCN(C(=O)c3ccccc3Cl)CC2)nc1)c1cc(F)cc(F)c1	-8	1.07

Compound	% Inhibition [%]	Z score
CC(C)(C)OC(=O)NC[C@H]1CCN(CC(=O)NCc2ccco2)C1	-13	1.28
O=C(NCc1ccncc1)C1C2CCC(C2)N1C(=O)c1ccccc1 (configuration not stated)	0	0.07
Cc1cnc(NCCN(C)S(C)(=O)=O)nc1N(C)C	-4	0.52
Cc1ncc(C(=O)NC2(C#N)CCCC2)c(C)n1	-11	1.17
COc1ccc(CCNC(=O)Cc2csc(NC(=O)c3ccc(Cl)cc3)n2)cc1OC	9	-1.54
CCn1c(CN(C)CC2CCN(CCO)CC2)nc2c(F)cccc21	-6	1.11
CC(=O)N1CCN(C(=O)c2ccccc2Nc2cccc(C(F)(F)F)c2)CC1	-3	0.4
CCc1nc(-c2ccccc2-n2cncn2)n(C(C)(C)C)n1	-7	0.6
CC1CN(S(=O)(=O)NCC(O)C2CC2)CC(C)O1 (configuration not stated)	-1	0.11
CCC(CC)(CCO)CNC(=O)C1CC1C (configuration not stated)	1	-0.12
CCN(CC)S(=O)(=O)c1ccc(Cl)c(C(=O)Oc2ccc(C)cc2-n2nc3ccccc3n2)c1	-8	1.29
CC(C)(C)C(=O)Nc1ccc(-n2cccc(C(=O)NCCN3CCOCC3)c2=O)cc1	-3	0.34
CCc1c(C)nc(N)nc1N[C@@H](C)c1ccc(C)cn1	4	-0.66
COC(=O)N[C@@H](C)c1nc(Cc2cccs2)nn1CC(F)(F)F	-6	1.03
COc1ccc2[nH]c3c(N4CC5(C)CC4CC(C)(C)C5)ncnc3c2c1 (configuration not stated)	-10	1.27
Cc1cc(C(=O)Nc2ccccc2-c2nc3ccccc3s2)on1	2	-0.33
Cc1nn(C)c(C)c1S(=O)(=O)Cl	5	-0.62
COc1ccccc1C(=O)N1CCN(c2nc(-c3ccccc3)nc(C)c2C(C)C)CC1	-18	1.74
CCOC1CC(N(C)C(=O)Nc2ccn(C)n2)C12CCCCC2 (configuration not stated)	-15	2.9
Cc1noc(C)c1C(=O)Nc1sc2c(c1C#N)CCCCC2	-4	0.52
CC[C@H]1CCCCN1C(=O)Cn1c(=O)n(Cc2ccc(F)cc2)c(=O)c2c1c(C)nn2CC	-3	0.55
Cc1ccc(-c2nsc(C(=O)NCCN3CCOCC3)c2N)cc1	-15	1.74

Compound	% Inhibition [%]	Z score
COc1ccc(CNC(=O)C2CCN(S(=O)(=O)c3ccc4c(c3)CCC4)CC2)cc1OC	-13	1.28
Cc1cnc(-n2ncc(C(=O)O)c2C2CC2)nc1-c1cccs1	-7	1.26
CC(C)Oc1ccc(NC(N)=NC2CC2C)cc1 (configuration not stated)	-17	2.37
Brc1ccccc1[C@@H]1CN(C2CC2)CCN1	17	-2.13
O=C(Cn1cc(C2CC2)nn1)N(Cc1ccco1)c1cccc(F)c1	-9	1.1
CN1C[C@@H](C(=O)Nc2ccc(-n3cnnn3)cc2)CC1=O	-3	0.34
Cc1cncc(C(=O)N2CCC3(CC2)CC[C@]3(C)O)c1	-11	1.36
O=C1NCC(=O)N2CCN(C(=O)c3cccc4c3OCC4)C[C@@H]12	4	-0.6
O=S(=O)(NC1CCC(O)CC1)c1csc2ccc(Cl)cc12 (configuration not stated)	-1	0.1
CC1CN(C(=O)c2cnc(-c3ccccn3)s2)CC(C)N1 (configuration not stated)	-1	0.11
Cc1cc(Cl)ccc1NC(=O)COc1ccc2[nH]c3ccccc3c(=O)c2c1	-2	0.22
CCc1ccc(NC(=O)c2scc(-c3ccccc3)c2S(=O)(=O)N(C)c2ccccc2)cc1	-6	0.83
CC1CN(C(=O)CC2C=CCC2)C1c1ccccc1 (configuration not stated)	-5	0.47
CC(C)c1ccc(NC(=O)CCc2cccc3[nH]ccc23)cc1	-6	0.71
COc1ccsc1S(=O)(=O)N(C)c1ccc2ccccc2n1	-2	0.43
CCC(C)NC(=O)CN1CCCC(c2cc(C(N)=O)[nH]n2)C1 (configuration not stated)	-14	1.55
CCOC(=O)C1CCN(C[C@]2(O)CCCN(CC3CCC3)C2=O)CC1	-1	0.07
CCN(CC)C(=O)COC(=O)Cc1ccc(Cl)cc1	29	-3.94
CC1=NC2(CCN(c3ncnc4c3c(C)nn4C)CC2)C(=O)N1	-1	0.2
COc1ccc(N2CCN(C(=O)c3noc(-c4ccc(C)cc4)n3)CC2)cc1	-10	0.92
COCCCN1C(=O)c2ccccc2N[C@@H]1c1ccco1	-4	0.6
COC(=O)c1ccc(CNS(=O)(=O)c2c(C)noc2C)cn1	-11	1.39

Compound	% Inhibition [%]	Z score
CN(CC(F)(F)F)C(=O)Nc1ccc(S(C)(=O)=O)cc1	-15	2.2
COC(CS(=O)(=O)Nc1nnc(-c2ccc(F)cc2F)o1)C1CCOC1 (configuration not stated)	-8	0.98
O=C(CN(CCO)c1ccc(Br)cc1)NC1CCCC1	-1	0.19
C[C@H]1C(=O)N(C)CCN1Cc1cc(C(C)(C)C)on1	-32	3.74
O=C(c1ccccc1Cl)N1CCc2ncncc2C1	-9	1.76
NC(=O)c1nccnc1C(=O)N[C@H]1CCN(c2ccc(Cl)cc2)C1	-1	0.11
CCCCOCCS(=O)(=O)Cc1csc(-c2ccc(OCC)c(OC)c2)n1	-1	0.07
CN(C)CCn1ccnc1C1CCN(C(=O)c2cn(C)c3ccccc23)CC1	-19	1.66
COc1cccc(Cn2ccnc2CN(Cc2ccco2)C(=O)c2ccc(F)cc2)c1	-4	0.54
COc1cccc(-n2nc(C(=O)NC[C@H]3CCCO3)c(=O)n(Cc3cccc(C)c3)c2=O)c1	-13	2.58
CCC(c1ccccc1)C1CCCN1CC(=O)NC(C)C (configuration not stated)	-1	0.14
C[C@H]1CN(C(=O)CCn2cc(Br)ccc2=O)CCN1	-9	1.04
Cc1nc(-c2ccccc2OC2CN(S(=O)(=O)c3c(C)nn(C)c3C)C2)no1	7	-0.8
CCc1nn(CC(=O)N2CCCC2)c(=O)c2cc3ccccc3n12	-15	2.89
O=C(CNC(=O)C1CC1c1ccc(F)c(F)c1)Nc1ccc(F)cc1 (configuration not stated)	-4	0.81
CC(NC(CO)c1ccccc1)C1CN(Cc2ccccc2)CCO1 (configuration not stated)	-14	2.28
CC(C)(C)[C@H](NC1CCN(CC(N)=O)CC1)c1cc2ccccc2o1	0	0.01
CNC(=O)[C@H]1CC[C@H](CNc2nccc(N)n2)CC1	4	-0.78
CCC(C)NCC(O)Cn1c(-c2ccccc2)c(-c2ccccc2)c2cc(C)ccc21 (configuration not stated)	93	-10.06
Cc1ccc(C(=O)Nc2nc3nc(-c4ccccc4)cc(O)n3n2)cc1	32	-3.65
